# Data taken from ChEMBL document CHEMBL1201862, “PubChem BioAssay data set” (2004).
#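 How tested: cells in 96-well plates exposed to compound for 48 hours at five concentrations. GI50 is the concentration that inhibits growth by half.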 Activity calls are given as the source filed them. No stated cut-off is given here; in the data, active = GI50 up to about 1.1 µM and inactive = higher.
# Test system: NCI-H322M
# Test: inhibition of tumour cell growth, NCI panel, 48 h
row,SMILES,GI50
1,CCCCS(=O)(=O)CCC(N)C(=O)O (stereo not drawn),inactive: > 100 µM
2,Nc1ccc(S(=O)(=O)c2ccc(NC(=O)c3cccnc3)cc2)cc1,inactive: > 100 µM
3,CC(C)(C)CC(N)=O,inactive: > 100 µM
4,O=C(O)CCn1cnc2c(S)ncnc21,inactive: > 100 µM
5,Cn1c(=O)c2nc(COCc3nc4c(=O)n(C)c(=O)n(C)c4[nH]3)[nH]c2n(C)c1=O,inactive: > 100 µM
6,COc1ccc(C[C@H]2COC(=O)[C@@H]2Cc2ccc(O)cc2)cc1OC,inactive: > 100 µM
7,COc1ccc(-n2sc3ncc(C)cc3c2=O)cc1,inactive: > 100 µM
8,COc1cc(C2c3cc4c(cc3OC(N3CCNCC3)C2C)OCO4)cc(OC)c1OC (stereo not drawn),active: 0.989 µM
9,CCCCSc1n/c(=C\c2ccc(N(C)C)cc2)c2nnnn12,inactive: > 100 µM
10,Cc1ccc2nnc(NS(=O)(=O)c3cc(C)c(Cl)cc3S)n2n1,inactive: > 100 µM
11,C1CSCCSCSCCS1,inactive: > 100 µM
12,COc1ccc(C(OC(=O)[C@H](O[Si](C)(C)C(C)(C)C)[C@@H](NC(=O)c2ccccc2)c2ccccc2)c2ccc(OC)cc2)cc1,inactive: > 100 µM
13,CN(NC(=O)c1ccc(Cl)cc1)C1=NCCCCN1,inactive: > 100 µM
14,CCCCN1C(=O)CS/C1=N/Nc1nc2c([nH]1)c(=O)n(C)c(=O)n2C,inactive: 5.09 µM
15,COC(=O)C1(C)OC(C)=NC1(C(=O)OC)C(=O)OC (stereo not drawn),inactive: > 100 µM
16,O=C(O)c1cccc(Nc2c(C(=O)O)cccc2[N+](=O)[O-])c1,inactive: > 100 µM
17,N#Cc1cnsc1,inactive: > 100 µM
18,COc1ccc(CNc2nc3ccc(C(F)(F)F)cc3nc2-c2ccccc2)cc1OC,inactive: > 100 µM
19,NC(=O)CC(/N=C1\C(=O)OC(C(O)CO)\C1=N/C(CC(N)=O)C(=O)O)C(=O)O (stereo not drawn),inactive: > 100 µM
20,O=c1cccccc1NCCOCCNc1cccccc1=O,inactive: > 100 µM
21,Cc1ccc(S(=O)(=O)N2CC2CCCCC=O)cc1 (stereo not drawn),inactive: > 100 µM
22,Clc1ccc(Nc2nc(Cl)c3nc[nH]c3n2)cc1Cl,inactive: 33.7 µM
23,COc1ccc(C(=O)C(CC2C(=O)CC(C)(C)C(C(=O)C(=O)Nc3c(C)cccc3C)C2=O)c2ccc(OC)cc2)cc1 (stereo not drawn),inactive: > 100 µM
24,COC(=O)c1c2c(cc3c1CC1(Cc4cc5c(cc4C1)CCCC5)C3)CCCC2,inactive: > 100 µM

row,SMILES,GI50
1,Cc1cc(S(N)(=O)=O)c(S/C(=N\Nc2ccc([N+](=O)[O-])cc2)c2ccc(Cl)cc2)cc1Cl,inactive: 1.77 µM
2,Cc1cc(C)nc(NS(=O)(=O)c2ccc(Nc3c4ccc(Cl)cc4nc4c(C(=O)NCCN(C)C)cccc34)cc2)n1,inactive: > 100 µM
3,O=C1CSC(c2ccccc2[N+](=O)[O-])N1c1ccc(-n2c(-c3ccccc3)nc3ccccc3c2=O)cc1 (stereo not drawn),inactive: 89.9 µM
4,O=C(NS(=O)(=O)OCC(Cl)(Cl)Cl)SCCC(F)(F)C(F)(F)C(F)(F)C(F)(F)C(F)(F)C(F)(F)F,inactive: 20.1 µM
5,COc1cc(C(C)c2cc3c(cc2OCCOCCOc2cc4c(cc2C(C)c2cc(OC)c(OC)c(OC)c2)OCO4)OCO3)cc(OC)c1OC (stereo not drawn),inactive: > 10 µM
6,CCOC(=O)c1csc(NC(=O)CCN2CCCC2)n1,inactive: > 100 µM
7,O=c1c(Cl)c(Cl)c(=O)c2sc3cc(Cl)ccc3[nH]c1=2,inactive: 94.2 µM
8,CCOC(=O)/C(=C\c1c[nH]c2ccccc12)P(=O)(OCC)OCC,inactive: 39.1 µM
9,CC(C)Cc1ccc(C(C)C(=O)N2CCN(/C=C/c3ccccc3)CC2)cc1 (stereo not drawn),inactive: 17.3 µM
10,NC(CCCNc1ccc(O)cc1)C(=O)O (stereo not drawn),inactive: > 100 µM
11,O=[N+]([O-])c1cc([N+](=O)[O-])c(C(Cl)C(Cl)c2ccccc2)cc1C(Cl)C(Cl)c1ccccc1 (stereo not drawn),inactive: 5.22 µM
12,Cc1ccc(Nc2nc(=O)c3c4ccccc4n(C(=O)OC(C)(C)C)c3s2)cc1,inactive: 30.7 µM
13,CC(=O)N1c2ccccc2C23CCN(C)CC4C(C)OCC(C4CC2=O)C13 (stereo not drawn),inactive: > 100 µM
14,CC(C)(C)OC(=O)C1C(=O)NC(=O)CC1C(COCc1ccccc1)OCc1ccccc1 (stereo not drawn),inactive: 36.1 µM
15,CC1CN1P1(N2CC2C)=NP(N2CC2C)(N2CC2C)=NP(N2CC2C)(N2CC2C)=N1 (stereo not drawn),inactive: > 50 µM
16,Cc1nn(C(=O)c2ccncc2)c2c1C(c1ccc([N+](=O)[O-])cc1)SC(=N)N2 (stereo not drawn),inactive: > 100 µM
17,c1ccc2c(c1)CC1c3[nH]c4ccccc4c3CCN21 (stereo not drawn),inactive: > 10 µM
18,NC(=O)CC(N)C(=O)NC(Cc1ccccc1)C(=O)NC(Cc1ccccc1)NC(=O)C(Cc1c[nH]c2ccccc12)C(=O)O (stereo not drawn),inactive: > 100 µM
19,CN(/N=C/c1ccc(Cl)c(Cl)c1)C1=NCCCCN1,active: < 0.01 µM
20,COC(=O)C1=CC(=O)OC1(OO)c1ccccc1 (stereo not drawn),inactive: > 100 µM
21,COc1cc(/C=C2\N=C(c3ccccc3)N(/N=C/c3cc4cc(C)ccc4nc3Cl)C2=O)ccc1O,inactive: 69.2 µM
22,COc1ccc2c(c1)OCCCN(C)OC2c1ccccc1 (stereo not drawn),inactive: > 100 µM
23,C=CCC1(CN(C)C)CC/C(=C\c2ccc3c(c2)OCO3)C1=O (stereo not drawn),inactive: > 100 µM
24,CN(CC(=O)O)c1ncc2c(n1)CCCC2,inactive: > 100 µM
